Experimental data reported in the RNAGym collection of RNA variant scans (doi:10.7554/elife.90254).
The source gives no read counts; variants with many changes may rest on few reads.

B1: OR4K15 (parent)
chain: GUUAACGGUCAUAGGCCAUGGAAACUAGGAGCACCAUUUCGCUGCCAGUGAAGAAAUGAACAAAGAAAAUCUGGGCCAGGCAGGCAUCAAAAGAAAUAGUCUUGCGCUCAACCAGAAAGUCUGUAAUCAUUUUAAGGGUA

Variants of: B1
Experiment: self-cleavage, relative activity (ratio to wild type); higher = more cleavage; in vitro, sequencing; the parent is a self-cleaving ribozyme

Variant	self-cleavage
U19C A23G U57G U132A	0.92
A18U A116U A118U	0.1
U19A A66G A111G U120C	0.02
U19C A22G A95G	1.4
U19C A23G U43C A78G	0.26
A18U U57G U108A A117U	0
U19C A51U A96G U122G	2.12
U19C A27G G106U	0.03
U19C A36U U39C A55U A63G U124C A126G	0.24
U19A U39C A118G	1.54
A18U U37C A68G	1.34
U19C A47U A117G A135G G138U	0.37
U19C A33G G50A A69U	1.04
A18U A91G A96G	1.02
A18U U49A A56G	1.37
A18U A60U A68G	1.28
A18U A91G A126G U133C	1.25
U19A U39A U49C A59G A63G A92U	1.4
U19A A60G A66G A125G	0.6
U19A A22G A33G A36U A96G	1.59
A18U A94G A117G	1.61
U19A C42A A96G U122C	1.1
U19A C25U A67G U131C A140G	0.49
A18U A92G A126U	0.65

Variant	self-cleavage
U19C A52G A114U	0.11
A18U A60U U87C	0.74
U19A A30G U102C U103C	0.43
A18U U37C A59G A68U	2.11
U19C A30G A89G A126G	0.42
U19C A36U A60G A96G U122C	1.59
U19A U38G A117G	1.61
A18U G75C U100G U108C	0.01
U19A A55U A94G	0.59
U19A A69G A90G	0.71
U19A A36G A55G	1.26
U19A A94G A96G U122A	2.12
A18U A95G U139G	1.91
U19A A52U U100C	2.15
U19A A64G A116U	0.43
U19A G48U A60G C76U A94G	0.08
A18U C25U G31A A78G C107A U122C	0.02
U19C A24G U43A A69G U132C G136A	1.72
U19A A22G U108C	0.06
U19C A52G A89G U131A A135G	0.64
U19A C46U C85U	1.09
U19C A52G U97C	1.86
U19C A33G A110U	0.46
A18U U87C U102C	2.35

Variant	self-cleavage
U19A A89G A94G	0.66
A18U G106U A110G	0.01
U19C A23G U102C U124A	0.77
U19A A69G A94G U132C	1.9
U19C A22G A60G U132C	0.41
U19C A22G G50A A52G A62G A86G A91G	0.17
U19A A30G A68G	0.57
U19A U43C A126G U132C	0.63
U19C A52G A55C A91G	0.24
U19A C45U A52G U87C A110G	0.15
U19C A30U A67G	0.88
U19C A23U U72C G104A A129U	0.02
A18U U26A U139G	0.83
A18U U38C U57A	1.62
U19A G41A G79A A94G U122A	0.11
U19C A23C A86G A111G U130C	0.01
U19C A33G A94G	0.92
U19A U43C A67G	1.47
U19A G80A U122C	0.22
U19A A52U A91G A135U	0.91
A18U G21A A82G C85U A126U	0.29
U19A U108C A126G	0
U19A U38A U49C A90G A94G U132C	0.94
U19C A22G A60G	1.13

Variant	self-cleavage
U19A A54G A59U A86G A111G	0.06
U19C A22G A52G	1.01
A18U A96G A111G A114U	0.02
U19C A51G A52G A60G A64G A66G A69G A89G	0.67
U19A A47U U132C	0.25
U19A A54G A66G U100A U103C	0.1
U19A A54G A91G A114G	0.06
U19C A27G A111G U130C	0.02
A18U A95G G123A	2.21
U19C A30G A66G	0.76
U19A A55G A69G A98G A117G U130C	0.15
U19C A36U A92G U108C	0.03
U19C A22G U100C	1.38
U19A A23U U57C A114G	0.21
U19A A59G A68G U102C	2.44
U19C A30G A129G	0.53
U19A C45G U130C	0.66
A18U U57C G104A	0.01
A18U U19C A24G G31A U122C	0.46
U19A A33G A98G A110G U131C	0.01
U19A U39C U87C A89G U100C	1.43
U19A A36G A47G A92G	0.73
A18U A69G U72C	0.14
A18U U49C A116C	0.06

Variant	self-cleavage
U19A A30G C45U A68C U103C	0.82
U19C A23G C61U U97C	0.5
A18U U43C A54G	1.67
U19C A51G A111G	0.05
A18U C32U A67G A110C	0.15
U19C A36U U127G U132C U139C	0.71
U19A A22G A89G U108A	0.1
A18U U108A U120C U127C	0.01
U19C A22G C46A A52U A94G	1.3
U19C A33C U39C	1.45
U19A U100C A135G	2.04
U19C A22G A23G A78U	0.6
U19C A30G U139C	0.98
U19C A54G A64G U102C	1.48
U19A U38C U87A A90G U100C	2.24
U19A A59U A67G A117C	0.37
A18U U19C U87A	0.83
A18U U39C U124A	0.43
U19A A24G G31U U49C A52G U103C A114G	0.43
U19C A52G A118G	1.13
U19A A67G U87A	1.73
U19C A47U A62G U103C U133C	0.27
U19C A24G A59G A66G A94G U108C U139C	0.01
A18U U49A U70C C107U A111G	0.01

Variant	self-cleavage
U19C A52G A140G	1.02
U19A A54U A60G A117G U139C	1.42
U19A U43A G50A	1.1
U19A U43A U132A	0.72
U19A U38C A62U	1.87
U19A U43C A56G	0.79
U19A A33U A59U A117U	1.6
U19C A47U A95G U122C A125G	0.64
U19A A24G A33U A62G U108C	0.05
U19A G28A A95G U108C	0.02
U19C A23U A55G A92G U102C	1.64
A18U A114G U122C	0.03
U19C A52G A110C A111G U122C A125G	0
U19A A86U U132C	1.08
A18U A82G U102A U120C	0.05
A18U C34U A89G	1.99
U19A U122C U127A	0.81
A18U A66G U97C	0.54
U19A C42U C105U	0.04
A18U U108C U122C	0.01
U19A A62G A111U U124C U132C	0.02
U19A C35U A52G U57C	0.71
U19A A52G A66G A96G A111G	0.12
U19A U57C A64G A68G	1.42

Variant	self-cleavage
U19C A33G U97C	0.39
U19A U38C A47U A59G A94G	1.31
U19A A30U A33G A54G	0.92
A18U A68U A91U U124C A125G	1.22
U19A G58A U72C	0.07
A18U A89G U103C U132C	0.1
A18U A60U A95G	1.73
A18U U57C A90G U132C	0.31
A18U G29A A54G U57C A114U A118G	0.02
A18U U43A U72C A95G A117G G123A A129U	0.04
A18U U38C A68G A82G A92G U100C	1.79
U19A A95G U133C	2.1
U19C A36G A59G	1.08
A18U A68C A111U G138A	0.03
U19C A33G U124C	0.74
U19A C45U A54U A111G A117G	0.01
A18U A114U U133C	0.19
A18U U132C A140G	0.87
U19A A23G U39C A82U A116U	0.02
U19C A23G A116U U131C	0.55
U19A C85U U108C A126G	0
A18U A116U U131C	0.2
U19C A47U A92U	0.66
